Test results reported in PubChem BioAssay AID488969 (Vanderbilt High Throughput Screening Facility, 2010).
Whole data set: some 110,000 compounds, median “z-score” near -0.1, cut for the highest 2% near 2. The list shows a part of the results. Calls of active or inactive are those of the source.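 Rule for the calls: active = z-score in the third read window above 3 or below -3; inactive = the rest.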

target: Metabotropic glutamate receptor 8 (Rattus norvegicus) (UniProt P70579); assay: mGluR8 Gi/Go-coupled signaling modulation – cell-based, rat, thallium flux, HTS, primary screen (AID 488969); conditions: HEK293 rat mGluR8, GIRK (G protein-gated inwardly rectifying potassium channel) thallium flux, FluoZin2; at 10 µM; stronger effect = higher value; submaximal glutamate (EC20) added with thallium
Chain of UniProt P70579 (P70579 whole entry, looked up): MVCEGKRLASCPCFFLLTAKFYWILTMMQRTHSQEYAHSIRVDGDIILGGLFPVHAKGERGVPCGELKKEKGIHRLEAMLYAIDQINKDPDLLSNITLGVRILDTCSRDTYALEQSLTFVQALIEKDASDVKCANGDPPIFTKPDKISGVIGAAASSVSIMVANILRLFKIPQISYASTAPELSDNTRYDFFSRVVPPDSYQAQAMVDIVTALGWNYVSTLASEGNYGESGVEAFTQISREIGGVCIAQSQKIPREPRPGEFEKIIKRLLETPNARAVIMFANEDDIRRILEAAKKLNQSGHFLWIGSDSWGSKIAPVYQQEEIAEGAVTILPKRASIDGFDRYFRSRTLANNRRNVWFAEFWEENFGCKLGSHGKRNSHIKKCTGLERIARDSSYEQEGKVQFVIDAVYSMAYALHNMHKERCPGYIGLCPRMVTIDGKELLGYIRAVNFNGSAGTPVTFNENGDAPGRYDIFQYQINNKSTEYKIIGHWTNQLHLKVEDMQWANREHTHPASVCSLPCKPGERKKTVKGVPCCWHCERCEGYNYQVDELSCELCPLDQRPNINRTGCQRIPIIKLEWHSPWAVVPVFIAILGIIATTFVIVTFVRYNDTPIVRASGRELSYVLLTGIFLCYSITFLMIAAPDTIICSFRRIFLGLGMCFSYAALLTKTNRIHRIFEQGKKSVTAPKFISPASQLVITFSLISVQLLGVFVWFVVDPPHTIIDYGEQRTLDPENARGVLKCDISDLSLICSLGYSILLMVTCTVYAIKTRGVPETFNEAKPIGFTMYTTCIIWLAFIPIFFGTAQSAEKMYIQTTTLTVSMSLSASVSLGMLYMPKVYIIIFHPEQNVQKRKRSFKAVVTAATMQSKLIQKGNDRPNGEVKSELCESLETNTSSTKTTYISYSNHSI

Which z-score does the source give for COc1ccc(NC(=O)c2cnc(C)cn2)c2ncccc12 here?
Its z-score is -0.327.

With Cc1cccc(C)c1-n1c(C)cc(/C=N\NC(=O)CC(=O)NC2CCCCC2)c1C as the compound, how does the z-score read?
The z-score was -0.426.

Which z-score does the source give for COc1ccc(C)cc1NC(=O)C12CCC(C)(C(=O)O1)C2(C)C (stereo unspecified) here?
Its z-score is -0.0486.

For Cc1nn(Cc2ccc(Cl)cc2Cl)c(C)c1NC(=O)c1ccc(COc2cc(Cl)ccc2Cl)o1, which z-score is on record?
The z-score was -0.124.

Which z-score does the source give for COc1cc(/C=N/n2cnnc2)ccc1OC(=O)c1ccncc1 here?
Its z-score is -0.14.

CC(C)(C)c1csc(N(CCC#N)CCC#N)n1 was tested. Which z-score did it give?
The z-score was -0.355.

COC(=O)c1cc(Cl)c(NC(=O)c2ccc(C(C)(C)C)cc2)cc1OC was tested. Which z-score did it give?
The z-score was -0.633.

How did the z-score turn out when Cc1cccc(CSCc2nnc(N)s2)c1 was run?
Its z-score is -0.191.

Which z-score does the source give for COc1ccc(Nc2oc(COc3ccc(OC)cc3)nc2C#N)cc1 here?
Its z-score is 0.0869.

For CCN(CC)c1nc(-c2ccccc2)cc(C(F)(F)F)c1C#N, which z-score is on record?
Its z-score is -0.0959.

Which z-score does the source give for COc1ccc(C(=O)COC(=O)CCCn2c(=O)oc3ccccc32)cc1 here?
Its z-score is 0.126.

With Cc1cc(C)nc(N(C#N)Cc2ccccc2)n1 as the compound, how does the z-score read?
The z-score was 0.201.

How did the z-score turn out when Cc1nc2sc3c(c2c(=O)o1)CCC3 was run?
Its z-score is 0.436.

O=C(Cn1cc2c(n1)CCCC2)Nc1ccccc1Br was tested. Which z-score did it give?
The z-score was -0.412.

Which z-score does the source give for CCCOc1ccc(C(=O)CCC(=O)OCC(=O)Nc2cc(C)on2)cc1 here?
Its z-score is -0.574.

With Cc1ccc(-n2ncc3c(Nc4cccc(C(=O)O)c4)ncnc32)cc1 as the compound, how does the z-score read?
Its z-score is -1.1.

Nc1nc(SCC(=O)Nc2ccc(Br)cc2F)n[nH]1 was tested. Which z-score did it give?
Its z-score is 0.349.

How did the z-score turn out when COc1ccc(C(OC(=O)c2ccco2)C(=O)NCC2CCCO2)cc1 (stereo unspecified) was run?
The z-score was -0.972.

c1cnn(-c2cc(N3CCOCC3)ncn2)c1 was tested. Which z-score did it give?
Its z-score is -0.268.

C/C(Cl)=C/CN1C(=O)C2C3C=CC(C3)C2C1=O (stereo unspecified) was tested. Which z-score did it give?
Its z-score is -0.13.

COC(=O)c1ccccc1NC(=O)c1cc(-c2ccc(O)cc2)on1 was tested. Which z-score did it give?
Its z-score is -0.322.

For Clc1cccc(Cl)c1Cn1cnc2c(N3CCCCCC3)ncnc21, which z-score is on record?
Its z-score is -0.663.

For O=C(CC1Nc2ccccc2NC1=O)NCCc1ccccc1 (stereo unspecified), which z-score is on record?
The z-score was -0.0324.

Which z-score does the source give for CCC(=O)N1CCN(c2ccc(NC(=S)NC(=O)c3cccc([N+](=O)[O-])c3)cc2)CC1 here?
The z-score was 0.125.

Which z-score does the source give for Cc1cc(C)nc(Sc2ncnc3sc4c(c23)CCC4)n1 here?
The z-score was active: 5.12.

Which z-score does the source give for CCOC(=O)c1ccc(N=c2sc(C(=O)OC)cc(=O)n2Cc2ccc3c(c2)OCO3)cc1 here?
The z-score was 0.428.

For N#Cc1c(-c2ccccc2)nc2n(c1=O)CCS2, which z-score is on record?
The z-score was 0.404.

With Cc1ccc(C(C(=O)NCc2ccco2)N(C(=O)CNC(=O)c2cccs2)c2c(C)cc(C)cc2C)cc1 (stereo unspecified) as the compound, how does the z-score read?
Its z-score is 0.407.

How did the z-score turn out when COc1ccc(S(=O)(=O)N(C)CC(=O)Nc2ccccc2SC)cc1Cl was run?
The z-score was -0.243.

For N#Cc1c(-c2ccccc2)nc(SCC(=O)Nc2ccccc2)[nH]c1=O, which z-score is on record?
The z-score was -1.89.

How did the z-score turn out when COC(=O)c1ccc(CSC2=NCCS2)cc1 was run?
Its z-score is -0.195.

For CCCn1c(C)cc(C(=O)COC(=O)CN=C2NS(=O)(=O)c3ccccc32)c1C, which z-score is on record?
The z-score was -0.124.

How did the z-score turn out when CCC(=O)Nc1nc(C)nc(C)c1C(C)=O was run?
The z-score was 0.102.

CCCCc1[nH]c(=O)c(C#N)c2c1CCCC2 was tested. Which z-score did it give?
The z-score was -0.203.

How did the z-score turn out when C/C(=N\NS(=O)(=O)c1ccc(Cl)c([N+](=O)[O-])c1)c1cc2ccccc2o1 was run?
Its z-score is -0.691.

Which z-score does the source give for Cc1oc(-c2cccc(Cl)c2)nc1CN1CCCC(C(=O)NCCCN2CCOCC2)C1 (stereo unspecified) here?
The z-score was 0.0635.

How did the z-score turn out when COc1cnc(-c2ccccn2)nc1Sc1cccc(Cl)c1 was run?
The z-score was -0.464.

COC(=O)c1ccc(C(=O)OC)c(NC(=O)COc2ccccc2OC)c1 was tested. Which z-score did it give?
The z-score was -0.04.

CCN=c1scc(C)n1/N=C/c1ccc(O)c(O)c1O was tested. Which z-score did it give?
The z-score was -0.528.

For N#C/C(=C(/O)COC(=O)CSc1ccc2ccccc2c1)c1nc2ccccc2[nH]1, which z-score is on record?
The z-score was 0.0152.

CCC(C(=O)N1CCN(c2cccc(Cl)c2)CC1)c1ccccc1 (stereo unspecified) was tested. Which z-score did it give?
The z-score was 1.82.

For CSc1nnc(C)c(/C=C/Nc2ccc(F)cc2)n1, which z-score is on record?
Its z-score is -0.895.

COc1ccc([N+](=O)[O-])cc1/C=N/NC(=O)CNC(=O)C(c1ccccc1)c1ccccc1 was tested. Which z-score did it give?
The z-score was -0.173.

Cc1ccc(C)c2c1sc(=NC(=O)CN1C(=O)CCC1=O)n2C was tested. Which z-score did it give?
Its z-score is 0.351.

For CCC(c1nnnn1CC1CCCO1)N(CCCO)Cc1cc2cccc(C)c2[nH]c1=O (stereo unspecified), which z-score is on record?
The z-score was 0.0164.

How did the z-score turn out when O=C(O)CSC1=NC(=Nc2ccc(Cl)cc2)C2(CCCCC2)N1c1cccc(C(=O)O)c1 was run?
The z-score was 0.83.

How did the z-score turn out when Cn1c(C(=O)Nc2ccccc2)cc2sccc21 was run?
Its z-score is 0.454.

Which z-score does the source give for O=C1CCCC/C1=C\Nc1ccc(Cl)cn1 here?
The z-score was 0.295.

For COc1ccc(C(=O)c2cnc3ccccc3c2-c2ccccc2)cc1, which z-score is on record?
The z-score was -2.76.

COc1ccc(CCn2c(-c3cc([N+](=O)[O-])cc([N+](=O)[O-])c3)nc3nc4ccccc4nc32)cc1 was tested. Which z-score did it give?
The z-score was 0.0336.

For CC(CCc1ccccc1)NC(=O)CSc1ccccc1 (stereo unspecified), which z-score is on record?
Its z-score is -0.00119.

For C=CCN1C(=O)C(Cc2ccc(F)cc2)S/C1=N/N=C/c1cccs1 (stereo unspecified), which z-score is on record?
The z-score was 0.0602.

How did the z-score turn out when O=C(CN=C1NC(=O)C(c2ccccc2)(c2ccccc2)N1)NCc1ccc(F)cc1 was run?
The z-score was -0.114.

How did the z-score turn out when COC(=O)C1=C(CSc2nccn2C)NC(=O)NC1c1cc(C)ccc1C (stereo unspecified) was run?
Its z-score is -0.248.

With CC(c1ccco1)N(C(=O)c1ccccc1NS(=O)(=O)c1ccc(Cl)c([N+](=O)[O-])c1)c1ccccn1 (stereo unspecified) as the compound, how does the z-score read?
Its z-score is 0.843.

How did the z-score turn out when O=C(O)C1C2C=CC(O2)C1C(=O)NCCCn1ccnc1 (stereo unspecified) was run?
Its z-score is 0.447.

How did the z-score turn out when COc1nc(Oc2ccc(/C=N/O)cc2)nc(N(C)C)n1 was run?
The z-score was 0.353.

How did the z-score turn out when CC(=O)Nc1c(O)nc(SCc2ccc(Cl)cc2)[nH]c1=O was run?
Its z-score is -0.153.

For Cc1ccccc1-n1c(=O)cc(NCC2CCCO2)[nH]c1=O (stereo unspecified), which z-score is on record?
Its z-score is -0.131.

Which z-score does the source give for CCOc1ccc(-c2ccc(/C=C3/C(=N)N4C(C)=CSC4=NC3=O)o2)c([N+](=O)[O-])c1 here?
The z-score was 0.967.

For CCc1ccc(Nc2nnc(SCn3nnc4ccccc4c3=O)s2)cc1, which z-score is on record?
Its z-score is -0.292.

Which z-score does the source give for CCOc1ccc(NC(=O)c2cccc(OC(=S)N3CCC(C)CC3)c2)cc1 here?
Its z-score is -0.531.

How did the z-score turn out when Cc1ccc(C(=O)Nc2ccccc2-c2ccccc2)o1 was run?
Its z-score is -0.497.

With COc1ccc(/C=C/C(=O)NC(C)(C)C)cc1S(=O)(=O)N1CCOCC1 as the compound, how does the z-score read?
Its z-score is 0.164.

With O=C(COC(=O)C1CC1)c1c[nH]c2ccccc12 as the compound, how does the z-score read?
The z-score was 0.139.

With COc1ccc(CNC(C)C2COc3ccccc3O2)c(OC)c1 (stereo unspecified) as the compound, how does the z-score read?
Its z-score is 0.00937.

How did the z-score turn out when CCOC(=O)CNC(=O)COc1ccc(Cl)cc1Br was run?
The z-score was -2.87.

With COC(=O)C1=C(C)N(C)C(=O)NC1c1ccccc1 (stereo unspecified) as the compound, how does the z-score read?
The z-score was -0.573.

CN(CCNC(=O)c1cc2c(=O)n(C)c3ccccc3c2n1C)Cc1ccccc1 was tested. Which z-score did it give?
The z-score was 2.77.

With CCn1c2ccccc2c2cc(NC(C)=O)ccc21 as the compound, how does the z-score read?
The z-score was -0.326.

Which z-score does the source give for Cc1cc(C)nc(SCC(=O)Nc2ccc(S(=O)(=O)Nc3nccs3)cc2)n1 here?
Its z-score is -1.49.
